# Screen size: about 48,000 compounds; about 120 (0.25%) were called active. Another 4% or so got no clear call; they are omitted. Calls come from the whole dose curve; as a rule, active = well fitted activation curve with a large enough effect; inconclusive = small, poorly fitted or top-dose-only effect, or another doubt; inactive = no such curve, though single readings can be large or run the other way. The entries are a selection whose mix differs from that of the whole data set. Where no call is shown, the source filed none.
# Assay: Primary qHTS for Identification of Small Molecule Activators of Huntingtin-Antisense Promoter Activity; note: nearly all actives have a fitted effect of over 55% in size
# Details: HEK293 HTT-AS promoter firefly luciferase reporter, 24 h; activity change, positive = activation: at 57.5 µM (top of the series), percent change from vehicle, -100% = no light
# Procedure, shortened: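 Quantitative HTS used concentration series of up to 57.5 uM final on HEK293 luciferase reporter cells, 24 h at 37 degrees C. Readout was Dual-Glo firefly luminescence.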
# Potency is the fitted concentration of half-maximal effect.
Structure (SMILES),"activity change, positive = activation",Potency
Cc1ccc(C2C(=O)N(C3CCCCCC3)CC(=O)N2CCC2=CCCCC2)cc1 (configuration not stated),-37.9%,
CCOc1ccc(C(=O)Nc2ccc(Cl)c(-c3nc4cc(C)cc(C)c4o3)c2)cc1,-6.49%,
Cc1ccc(-n2nc(C)c(C(=O)NCCCN3CCN(c4ccccc4F)CC3)c2-n2cccc2)cc1,-40.1%,
COC(=O)c1c(NC(=O)CCCOc2ccccc2C)sc2c1CCC2,-1.44%,
CCOc1ccccc1NC(=O)C1CCN(S(=O)(=O)Cc2ccccc2)CC1,-5.63%,
Cc1ccc(NC(=O)c2ccc3c(=O)n4nc(Nc5ccccc5C)sc4nc3c2)cc1C,inactive: -4.68%,
Cc1ccc(NC(c2cccc(Cl)c2)c2nnc(-c3ccccc3)o2)cc1F (configuration not stated),-19.3%,
COc1ccc(CNC(=O)CCS(=O)(=O)c2ccc3c(c2)CC(C)N3C(=O)C2CC2)cc1 (configuration not stated),-15.1%,
COc1ccc(N(C(=O)c2cc(OC)c(OC)c(OC)c2)S(=O)(=O)c2ccc(C)cc2)cc1,inactive: 0%,
COc1ccccc1N1CCN(C(=O)c2oc3ccccc3c2N)CC1,-19.5%,
CC(=O)Nc1nonc1-c1nnc(SCc2cccc(Br)c2)n1C,inactive: -13.3%,
CCOc1ccc(NC(=O)CC2C(=O)N(c3cccc(C)c3)C(=O)N2Cc2cccnc2)cc1 (configuration not stated),0.609%,
COc1ccc(N2CCN(C(=O)c3oc4ccccc4c3NC(=O)c3ccccc3OC)CC2)cc1,inactive: -12.6%,
Cc1cccc(N2CCN(C3(c4ccccc4)C(=O)c4ccccc4C3=O)CC2C)c1 (configuration not stated),-6.08%,
COc1ccc2c(C)c(CCC(=O)NCCc3ccc(Cl)cc3)c(=O)oc2c1,-25.6%,
CC(C)C(=O)Nc1ccc2nc(SCCOc3ccccc3)sc2c1,inactive: -9.15%,
CCOC(=O)c1c(NC(=O)c2cc(-c3ccc(OC)cc3)on2)sc(C)c1C,-0.815%,
CNC(=O)COc1ccc(Nc2nnc(-c3ccc(C)c(S(=O)(=O)NC(C)(C)C)c3)c3ccccc23)cc1,-34.2%,
CC(=O)c1ccc(NC(=O)c2cc(-c3ccc(Cl)c(Cl)c3)on2)cc1,11.6%,
COc1ccccc1-c1cc(C(=O)Nc2cc(Cl)ccc2O)no1,13.4%,
CCOc1ccc(CNC(=O)c2cnc3sc(N4CCC(C)CC4)nn3c2=O)cc1OC,-6.2%,
O=S(=O)(Nc1cccc(-c2ccc(N3CCCCC3)nn2)c1)c1ccc(Cl)s1,63.4%,
COC(=O)Nc1ccc(-c2nc(N3CCOCC3)c3cnn(C4CCN(C(=O)OC)CC4)c3n2)cc1,inactive: -44%,
COc1ccc2c(c1)CC[C@@H](CN(C)CC(=O)O)[C@H]2c1ccccc1,inactive: -40.2%,

Structure (SMILES),"activity change, positive = activation",Potency
O=C(CC(c1ccccc1)c1cc(Br)ccc1O)NCC1(c2ccccc2)CCCC1 (configuration not stated),-57%,
COc1ccc(CCn2c3c(c(=O)[nH]c2=O)C(NC(=O)c2ccccc2)(C(F)(F)F)C(=O)N3)cc1OC (configuration not stated),inactive: -7.79%,
COc1ccc(C2C(=O)N(C3CCC(C)CC3)CC(=O)N2Cc2ccc(C)cc2)cc1OC (configuration not stated),-15.8%,
Cc1ccc(N2CC(NC(=O)Cc3cccs3)CC2=O)cc1 (configuration not stated),inactive: -7.5%,
Cc1cc(-c2ccc(S(=O)(=O)Nc3ccccc3C)cc2)on1,-30.2%,
COc1ccc(CNC(=O)C2CCCCN2S(=O)(=O)c2ccc(F)cc2)cc1 (configuration not stated),-23.8%,
CCc1ccc(NC(=O)CC2C(=O)N(c3cccc(C)c3)C(=O)N2Cc2cccc(OC)c2)cc1 (configuration not stated),-31.9%,
CCc1nn(CC(=O)NCc2ccco2)c(=O)c2cc3cc(F)ccc3n12,-5.35%,
Cc1cccc(-n2nnc(-c3nc(-c4cccs4)no3)c2N)c1C,,active: 0.355 µM
COc1ccccc1Nc1ncc2c(n1)CCN(CC(C)C)C2,,active: 12.6 µM
COc1ccc(-c2nc(SCC(=O)NCc3nc4ccccc4n3C)n3[nH]c(=O)cc3n2)cc1,1.97%,
Cc1ccc(OCCSc2nc(-c3cccs3)nc3cc(=O)[nH]n23)cc1Cl,-9.02%,
COc1ccccc1CCNC(=O)Cc1c(C)c2c(O)cc(C)cc2oc1=O,-2.54%,
CC(=O)c1[nH]c(C)c(C(=O)NCc2ccc(Cl)cc2)c1C,inactive: -49.8%,
COc1cc(C)c(S(=O)(=O)Nc2cccc(-c3ccc(N4CCCC4)nn3)c2)cc1C,-8.32%,
CCc1cc(=O)oc2cc(C)c3c(-c4ccc(F)cc4)coc3c12,-6.76%,
COC(=O)c1c(NC(=O)C2c3ccccc3Oc3ccccc32)sc2c1CCC(C)C2 (configuration not stated),-11.2%,
Cc1nc2scc(C)n2c(=O)c1S(=O)(=O)Nc1ccc(N2CCN(C(=O)C(C)C)CC2)cc1,-38.2%,
CCc1ccccc1NC(=O)c1cc(-c2ccc3c(c2)OCO3)on1,66.6%,
O=C(NCCCc1nc2ccccc2n1Cc1ccc(Cl)cc1Cl)c1ccco1,-17.3%,
CC(=O)c1ccc(NC(=O)c2noc3c2CCc2ccccc2-3)cc1,49.4%,
CC(C)CS(=O)(=O)c1oc(-c2ccc(F)cc2)nc1S(=O)(=O)c1ccccc1,inactive: -94.4%,
CCOc1ccccc1CNC(=O)Cn1c(-c2ccccc2)cc(C(C)=O)c1C,-0.751%,

# — PubChem BioAssay AID1508624 (National Center for Advancing Translational Sciences (NCATS), 2021)
